The list shows a part of the results.
B1: PhoQ; a variant is named by its letters at X, in order, P23837 (parent)
chain: MKKLLRLFFPLSLRVRFLLATAAVVLVLSLAYGMVALIGYSVSFDKTTFRLLRGESNLFYTLAKWENNKLHVELPENIDKQSPTMTLIYDENGQLLWAQRDVPWLMKMIQPDWLKSNGFHEIEADVNDTSLLLSGDHSIQQQLQEVREDDDDAEMTHSVAVNVYPATSRMPKLTIVVVDTIPVELKSSYMVWSWFIYVLSANLLLVIPLLWVAAWWSLRPIEALAKEVRELEEHNRELLNPATTRELTSLVRNLNRLLKSERERYDKYRTTLTDLTHSLKTPLXXLQXXLRSLRSEKMSVSDAEPVMLEQISRISQQIGYYLHRASMRGGTLLSRELHPVAPLLDNLTSALNKVYQRKGVNISLDISPEISFVGEQNDFVEVMGNVLDNACKYCLEFVEISARQTDEHLYIVVEDDGPGIPLSKREVIFDRGQRVDTLRPGQGVGLAVAREITEQYEGKIVAGESMLGGARMEVIFGRQHSAPKDE

Variants of: B1
Assay: enrichment ratio after two sorts for PhoP signalling (ratio (wild type AVST 3.29)); higher = more functional
Conditions: with PhoP (E. coli)

| Variant | enrichment ratio |
| --- | --- |
| FGHK | ≤ 0.25 |
| TQQW | ≤ 0.25 |
| PEFA | ≤ 0.25 |
| VKQA | ≤ 0.25 |
| YPIV | ≤ 0.25 |
| HYGV | ≤ 0.25 |
| FMIE | ≤ 0.25 |
| LMTF | ≤ 0.25 |
| QKAQ | ≤ 0.25 |
| RSSE | ≤ 0.25 |
| DIRH | ≤ 0.25 |
| MAQV | ≤ 0.25 |
| FWTL | ≤ 0.25 |
| KLKQ | ≤ 0.25 |
| PVID | ≤ 0.25 |
| HIHP | ≤ 0.25 |
| KLAP | ≤ 0.25 |
| AFSS | ≤ 0.25 |
| HQSP | ≤ 0.25 |
| MLIA | ≤ 0.25 |
| WHQP | ≤ 0.25 |
| AQTW | ≤ 0.25 |
| PKPY | ≤ 0.25 |
| IIKK | ≤ 0.25 |

| Variant | enrichment ratio |
| --- | --- |
| YEGF | ≤ 0.25 |
| PPDE | ≤ 0.25 |
| YEHA | ≤ 0.25 |
| TGRT | ≤ 0.25 |
| QWLK | ≤ 0.25 |
| MHEL | ≤ 0.25 |
| TESR | 6.55 |
| PAMW | ≤ 0.25 |
| LEQS | ≤ 0.25 |
| EYIL | ≤ 0.25 |
| NWGW | ≤ 0.25 |
| MGDS | ≤ 0.25 |
| PFYM | ≤ 0.25 |
| ITYP | ≤ 0.25 |
| GYSG | ≤ 0.25 |
| KCDG | ≤ 0.25 |
| MMHC | ≤ 0.25 |
| FAWI | ≤ 0.25 |
| ALNA | ≤ 0.25 |
| SDWH | ≤ 0.25 |
| PEIQ | ≤ 0.25 |
| TCRW | ≤ 0.25 |
| GGIQ | ≤ 0.25 |
| YNGK | ≤ 0.25 |

| Variant | enrichment ratio |
| --- | --- |
| NMHW | ≤ 0.25 |
| DVHS | ≤ 0.25 |
| AAWN | ≤ 0.25 |
| GSPT | ≤ 0.25 |
| MAFC | ≤ 0.25 |
| PVHG | ≤ 0.25 |
| SITL | 18.5 |
| VGVI | ≤ 0.25 |
| IKHT | ≤ 0.25 |
| SDPM | ≤ 0.25 |
| DHRS | ≤ 0.25 |
| VLCN | ≤ 0.25 |
| YCSA | 0.351 |
| IELV | 1.31 |
| YPGV | ≤ 0.25 |
| PQYE | ≤ 0.25 |
| LRNQ | ≤ 0.25 |
| HEWR | ≤ 0.25 |
| KLYL | ≤ 0.25 |
| NVPW | ≤ 0.25 |
| MKKM | ≤ 0.25 |
| AYWH | ≤ 0.25 |
| SSNG | 1.43 |
| NCFD | ≤ 0.25 |

| Variant | enrichment ratio |
| --- | --- |
| QQRR | ≤ 0.25 |
| TTTH | 20.3 |
| GRKT | ≤ 0.25 |
| HWCA | ≤ 0.25 |
| DWVG | ≤ 0.25 |
| TCWK | ≤ 0.25 |
| RHIV | ≤ 0.25 |
| EHTK | ≤ 0.25 |
| THRL | ≤ 0.25 |
| WCTW | ≤ 0.25 |
| WCFE | ≤ 0.25 |
| GASI | ≤ 0.25 |
| YVPW | ≤ 0.25 |
| MCYN | 11.3 |
| PQNW | ≤ 0.25 |
| SKCQ | 6.54 |
| RTDQ | ≤ 0.25 |
| MCGL | 4.26 |
| TWIV | ≤ 0.25 |
| ITRA | ≤ 0.25 |
| VGNI | ≤ 0.25 |
| SGCM | 6.39 |
| MRCT | ≤ 0.25 |
| IRYH | ≤ 0.25 |

| Variant | enrichment ratio |
| --- | --- |
| IPVN | ≤ 0.25 |
| TWTH | ≤ 0.25 |
| RFIS | ≤ 0.25 |
| IKTV | ≤ 0.25 |
| IARI | ≤ 0.25 |
| NRKA | ≤ 0.25 |
| HTWI | ≤ 0.25 |
| HSEQ | ≤ 0.25 |
| TEYA | 2.3 |
| TNGD | ≤ 0.25 |
| GILG | 12.3 |
| NTNN | ≤ 0.25 |
| MSIW | ≤ 0.25 |
| FGWE | ≤ 0.25 |
| FADE | ≤ 0.25 |
| KPNR | ≤ 0.25 |
| YPYW | ≤ 0.25 |
| KPIR | ≤ 0.25 |
| DRCY | ≤ 0.25 |
| KGLG | 0.735 |
| LWDE | ≤ 0.25 |
| VITC | ≤ 0.25 |
| QDGH | ≤ 0.25 |
| DVES | ≤ 0.25 |

| Variant | enrichment ratio |
| --- | --- |
| HPAQ | ≤ 0.25 |
| DSWV | ≤ 0.25 |
| PQWG | ≤ 0.25 |
| SPIP | ≤ 0.25 |
| YSFC | ≤ 0.25 |
| ILFM | ≤ 0.25 |
| PSMQ | ≤ 0.25 |
| YSEC | ≤ 0.25 |
| QLPL | ≤ 0.25 |
| EDMC | ≤ 0.25 |
| VHLN | ≤ 0.25 |
| EEAT | ≤ 0.25 |
| WKMY | ≤ 0.25 |
| THRR | ≤ 0.25 |
| GQDY | ≤ 0.25 |
| FWDN | ≤ 0.25 |
| SENI | 4.6 |
| LPVR | ≤ 0.25 |
| VNHT | ≤ 0.25 |
| GINS | ≤ 0.25 |
| DYPS | ≤ 0.25 |
| WIWN | ≤ 0.25 |
| TSTH | 5.24 |
| VVLL | 3.27 |

| Variant | enrichment ratio |
| --- | --- |
| LRER | ≤ 0.25 |
| YPST | ≤ 0.25 |
| HVPF | ≤ 0.25 |
| SHIQ | ≤ 0.25 |
| MMCC | ≤ 0.25 |
| FEVS | 3.54 |
| MTWF | 11.8 |
| NYRI | ≤ 0.25 |
| SSIY | 4.01 |
| NSCA | ≤ 0.25 |
| QSHC | 1.36 |
| QHDH | 0.83 |
| VMLN | ≤ 0.25 |
| KQAS | ≤ 0.25 |
| YHHV | ≤ 0.25 |
| VILN | ≤ 0.25 |
| QTCK | ≤ 0.25 |
| VCMV | 5.38 |
| ENYR | ≤ 0.25 |
| NMDP | ≤ 0.25 |
| QSGF | 6.78 |
| DFER | ≤ 0.25 |
| DKNM | ≤ 0.25 |
| YKPR | ≤ 0.25 |

| Variant | enrichment ratio |
| --- | --- |
| IYES | ≤ 0.25 |
| KVLF | ≤ 0.25 |
| GRWA | ≤ 0.25 |
| LPQD | ≤ 0.25 |
| GNKY | ≤ 0.25 |
| HYDY | ≤ 0.25 |
| SPIE | ≤ 0.25 |
| VVIA | ≤ 0.25 |
| WGPF | ≤ 0.25 |
| DPGR | ≤ 0.25 |
| QHYK | ≤ 0.25 |
| KQWR | ≤ 0.25 |
| AEGW | ≤ 0.25 |
| ACAK | 0.412 |
| ACTS | 5.78 |
| YCID | ≤ 0.25 |
| LSKQ | ≤ 0.25 |
| STSA | 8.82 |
| SFAR | ≤ 0.25 |
| TFNI | ≤ 0.25 |
| ARWK | ≤ 0.25 |
| PWLR | ≤ 0.25 |
| PYWW | ≤ 0.25 |
| GVAY | ≤ 0.25 |

| Variant | enrichment ratio |
| --- | --- |
| NDRA | ≤ 0.25 |
| GSFG | ≤ 0.25 |
| LPHF | ≤ 0.25 |
| NDAQ | ≤ 0.25 |
| LHWQ | ≤ 0.25 |
| TITM | 17.6 |
| LIPR | ≤ 0.25 |
| NPML | ≤ 0.25 |
| EPLM | ≤ 0.25 |
| TVPA | ≤ 0.25 |
| SVHL | ≤ 0.25 |
| PNAM | ≤ 0.25 |
| DHTG | ≤ 0.25 |
| YFVV | ≤ 0.25 |
| TSGG | 0.646 |
| DCPI | ≤ 0.25 |
| GIRN | ≤ 0.25 |
| QVSI | ≤ 0.25 |
| VAAP | ≤ 0.25 |
| HWAK | ≤ 0.25 |
| RRMH | ≤ 0.25 |
| GPGS | ≤ 0.25 |
| HREL | ≤ 0.25 |
| KMDD | ≤ 0.25 |

| Variant | enrichment ratio |
| --- | --- |
| DQIR | ≤ 0.25 |
| LLEF | ≤ 0.25 |
| MYIM | ≤ 0.25 |
| KECH | ≤ 0.25 |
| STML | 13.4 |
| KYCC | ≤ 0.25 |
| TVTV | 7.44 |
| DTTE | ≤ 0.25 |
| VCWC | ≤ 0.25 |
| RDYN | ≤ 0.25 |
| HAGR | ≤ 0.25 |
| RQPK | ≤ 0.25 |
| YHLL | ≤ 0.25 |
| YTRA | ≤ 0.25 |
| LICG | ≤ 0.25 |
| DQWL | ≤ 0.25 |
| NNNW | ≤ 0.25 |
| ICMG | ≤ 0.25 |
| TIVL | ≤ 0.25 |
| MMTP | ≤ 0.25 |
| DNQC | ≤ 0.25 |
| VIYD | ≤ 0.25 |
| FLTW | ≤ 0.25 |
| VEYC | ≤ 0.25 |

| Variant | enrichment ratio |
| --- | --- |
| GVWM | ≤ 0.25 |
| AYMS | ≤ 0.25 |
| SDCH | 3.65 |
| GRNF | ≤ 0.25 |
| TTVM | 3.4 |
| GVTF | 6.72 |
| PHRD | ≤ 0.25 |
| TQSK | ≤ 0.25 |
| FLKD | ≤ 0.25 |
| AQQH | ≤ 0.25 |
| ESMP | ≤ 0.25 |
| DWWI | ≤ 0.25 |
| FSHY | ≤ 0.25 |
| YLDL | ≤ 0.25 |
| WPVW | ≤ 0.25 |
| FDNP | ≤ 0.25 |
| QEDD | ≤ 0.25 |
| YRSH | ≤ 0.25 |
| ECRG | ≤ 0.25 |
| PCCH | ≤ 0.25 |
| WNDW | ≤ 0.25 |
| FNSD | ≤ 0.25 |
| YSIV | ≤ 0.25 |
| GRDA | ≤ 0.25 |

| Variant | enrichment ratio |
| --- | --- |
| VNGD | ≤ 0.25 |
| MKKK | ≤ 0.25 |
| QYDV | ≤ 0.25 |
| SWKH | ≤ 0.25 |
| TETK | ≤ 0.25 |
| DTNC | ≤ 0.25 |
| TFQC | ≤ 0.25 |
| KMCS | ≤ 0.25 |
| FTLN | 4.08 |
| MRTP | ≤ 0.25 |
| FHCM | ≤ 0.25 |
| HCLV | ≤ 0.25 |
| VDVD | ≤ 0.25 |
| LWSA | ≤ 0.25 |
| QLVS | ≤ 0.25 |
| NQQR | ≤ 0.25 |
| SQER | ≤ 0.25 |
| GVTH | ≤ 0.25 |
| MENQ | ≤ 0.25 |
| NIWQ | ≤ 0.25 |
| AYMA | ≤ 0.25 |
| TIEQ | ≤ 0.25 |
| DCFE | ≤ 0.25 |
| PWHH | ≤ 0.25 |

| Variant | enrichment ratio |
| --- | --- |
| QRFY | ≤ 0.25 |
| RNVN | ≤ 0.25 |
| KTSN | ≤ 0.25 |
| KQWF | ≤ 0.25 |
| LIVA | ≤ 0.25 |
| VSFF | ≤ 0.25 |
| TPCC | ≤ 0.25 |
| MMEM | ≤ 0.25 |
| KCHA | ≤ 0.25 |
| TSLE | 7.09 |
| RQKS | ≤ 0.25 |
| FRSC | ≤ 0.25 |
| SGNS | ≤ 0.25 |
| PIKA | ≤ 0.25 |
| CFAI | ≤ 0.25 |
| YYQS | ≤ 0.25 |
| VAHE | ≤ 0.25 |
| WSIV | 0.674 |

From a collection of fitness landscapes (doi:10.1126/science.1257360)
